# Laboratory results taken from PubChem BioAssay (NCATS).
# Several values for one entry are separate records, joined by “and”; a condition that tells them apart may be missing. Identical values can stand only once. Inconclusive results, whose numbers are uncertain, are shown with a selection of clear calls. Where the call is inconclusive, the potency comes from a doubtful curve fit. Activity calls are given as the source filed them. Unless noted, the call rests on the fitted dose curve; in most records, active means well fitted curve in the direction sought with a large enough effect; inconclusive means small, poorly fitted or top-dose-only effect, or another doubt; inactive means no such curve, though single readings can be large; an effect the other way counts as inactive or inconclusive.
# Experiments:
# [1] = Confirmatory qHTS for small molecule stabilizers of the endoplasmic reticulum resident proteome: Secreted ER Calcium Modulated Protein (SERCaMP) assay (AID 1508628); further: nearly all actives have a fitted effect of over 40% in size
# In short: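 Reporter secretion upon ER calcium depletion (100 nM thapsigargin, 4 h, 37C) is measured as medium luminescence with coelenterazine, after 16 h compound pretreatment of SH-SY5Y-GLuc-SERCaMP cells; primary at three concentrations up to 38.3 uM, follow-up at 11 (up to 76.6 uM).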
# [2] = Cell Viability qHTS for small molecule stabilizers of the endoplasmic reticulum resident proteome (AID 1508629); conditions: cell viability counter-screen, 100 nM thapsigargin for final 4 h;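 further: compound exposure about 46 h in total before the viability read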;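 on max response: human SH-SY5Y neuroblastoma cells carrying the GLuc-SERCaMP reporter; on the % scale 0 is the no-effect control and ±100 the full control effect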
# [3] = Primary qHTS for small molecule stabilizers of the endoplasmic reticulum resident proteome: Secreted ER Calcium Modulated Protein (SERCaMP) assay (AID 1508630); conditions: SH-SY5Y GLuc-SERCaMP (Gaussia luciferase released on ER calcium loss) secretion, thapsigargin, luminescence; activity change, negative = inhibition: at 38.4 µM (top of the series); on activity change, negative = inhibition: on the % scale 0 is the no-effect control and ±100 the full control effect
# In short: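 The SH-SY5Y reporter protocol was run at 3 concentrations up to 38.3 uM (primary) or 11 concentrations (follow-up): 16 h compound, 100 nM thapsigargin for 4 h, then extracellular luciferase luminescence.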
# [4] = A High-Content qHTS Against Drug Library for the Identification of Small Molecules that Inhibit DYT1 Early Onset Primary Dystonia-Associated Cell Pathology (AID 1645839; calls by dose curve)
# In short: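 High-content imaging quantified EGFP-TorsinA mislocalization in HEK293-derived cells inducibly expressing DYT1 mutant torsinA, after 48 h exposure to compound given together with tetracycline induction. Cell count served as a toxicity channel alongside %pathology.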
# [5] = Primary qHTS for inhibitors of nuclear receptor binding SET domain protein 2 (NSD2) in an isogenic RCH-ACV NSD2 p.E1099K mutant (9B) (AID 1645876); further: nearly all actives have a fitted effect of over 70% in size
# [6] = molecular target: Cytochrome P450 2D6 (Homo sapiens) (UniProt P10635); assay: Cytochrome P450 family 2 subfamily D member 6 (CYP2D6) small molecule antagonists: luciferase biochemical (cell-free) qHTS assay (AID 1645840; active means well fitted curve in the direction sought with a large enough effect in the repeat runs; inconclusive means weak or mixed curves; inactive means no such curve, though single readings can be large; an effect the other way counts as inactive or inconclusive; further: nearly all actives have a fitted effect of over 55% in size; on activity change, negative = inhibition: on the % scale 0 is the no-effect control and ±100 the full control effect)
# UniProt P10635, sequence (P10635 whole entry, looked up): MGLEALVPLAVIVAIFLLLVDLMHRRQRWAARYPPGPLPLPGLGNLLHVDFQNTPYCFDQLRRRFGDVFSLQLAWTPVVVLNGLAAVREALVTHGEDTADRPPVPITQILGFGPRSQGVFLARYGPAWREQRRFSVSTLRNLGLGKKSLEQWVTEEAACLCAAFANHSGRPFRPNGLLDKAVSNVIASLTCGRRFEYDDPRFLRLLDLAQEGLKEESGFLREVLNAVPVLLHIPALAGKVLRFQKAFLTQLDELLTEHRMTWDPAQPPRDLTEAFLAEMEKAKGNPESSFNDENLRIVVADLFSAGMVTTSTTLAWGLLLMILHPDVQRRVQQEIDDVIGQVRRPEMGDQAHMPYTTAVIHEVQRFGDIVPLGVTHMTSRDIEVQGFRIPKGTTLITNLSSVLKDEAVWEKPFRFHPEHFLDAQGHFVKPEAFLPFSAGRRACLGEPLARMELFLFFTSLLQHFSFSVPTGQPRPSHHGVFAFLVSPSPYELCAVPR
# In short: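 P450-Glo CYP2D6 system: proluciferin substrate converted by enzyme to luciferin, read by luminescence proportional to activity. Enzyme-substrate mix with compound 10 min at room temperature, then NADPH regeneration 1 h before detection reagent.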
# [7] = molecular target: Cytochrome P450 3A4 (Homo sapiens) (UniProt P08684); assay: Cytochrome P450 family 3 subfamily A member 4 (CYP3A4) small molecule antagonists: luciferase qHTS assay (AID 1645841; active means well fitted curve in the direction sought with a large enough effect in the repeat runs; inconclusive means weak or mixed curves; inactive means no such curve, though single readings can be large; an effect the other way counts as inactive or inconclusive; further: nearly all actives have a fitted effect of over 45% in size)
# UniProt P08684, sequence (P08684 whole entry, looked up): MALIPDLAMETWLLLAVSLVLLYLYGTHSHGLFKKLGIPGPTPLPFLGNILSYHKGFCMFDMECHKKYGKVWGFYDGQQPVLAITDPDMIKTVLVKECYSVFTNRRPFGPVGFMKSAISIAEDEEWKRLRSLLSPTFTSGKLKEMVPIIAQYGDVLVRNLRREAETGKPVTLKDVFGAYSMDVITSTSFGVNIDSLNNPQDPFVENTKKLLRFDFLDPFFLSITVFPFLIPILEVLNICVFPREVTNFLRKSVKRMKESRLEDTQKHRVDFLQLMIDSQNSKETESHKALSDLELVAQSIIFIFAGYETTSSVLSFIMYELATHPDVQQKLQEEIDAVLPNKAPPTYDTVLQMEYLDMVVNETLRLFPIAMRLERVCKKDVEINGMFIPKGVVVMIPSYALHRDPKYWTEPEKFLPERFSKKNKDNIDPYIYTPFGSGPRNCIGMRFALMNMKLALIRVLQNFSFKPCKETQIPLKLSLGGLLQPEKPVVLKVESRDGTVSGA
# In short: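 Luminescent CYP3A4 activity readout: compounds plus enzyme-substrate mix 10 min at room temperature, reaction started with NADPH regenerating system for 1 h, stopped with detection reagent, read after 20 min. Ketoconazole served as control.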
# [8] = molecular target: Cytochrome P450 2C9 (Homo sapiens) (UniProt P11712); assay: Cytochrome P450 family 2 subfamily C member 9 (CYP2C9) small molecule antagonists: luciferase biochemical (cell-free) qHTS assay (AID 1645842; active means well fitted curve in the direction sought with a large enough effect in the repeat runs; inconclusive means weak or mixed curves; inactive means no such curve, though single readings can be large; an effect the other way counts as inactive or inconclusive; further: nearly all actives have a fitted effect of over 55% in size; on activity change, negative = inhibition: on the % scale 0 is the no-effect control and ±100 the full control effect)
# UniProt P11712, sequence (P11712 whole entry, looked up): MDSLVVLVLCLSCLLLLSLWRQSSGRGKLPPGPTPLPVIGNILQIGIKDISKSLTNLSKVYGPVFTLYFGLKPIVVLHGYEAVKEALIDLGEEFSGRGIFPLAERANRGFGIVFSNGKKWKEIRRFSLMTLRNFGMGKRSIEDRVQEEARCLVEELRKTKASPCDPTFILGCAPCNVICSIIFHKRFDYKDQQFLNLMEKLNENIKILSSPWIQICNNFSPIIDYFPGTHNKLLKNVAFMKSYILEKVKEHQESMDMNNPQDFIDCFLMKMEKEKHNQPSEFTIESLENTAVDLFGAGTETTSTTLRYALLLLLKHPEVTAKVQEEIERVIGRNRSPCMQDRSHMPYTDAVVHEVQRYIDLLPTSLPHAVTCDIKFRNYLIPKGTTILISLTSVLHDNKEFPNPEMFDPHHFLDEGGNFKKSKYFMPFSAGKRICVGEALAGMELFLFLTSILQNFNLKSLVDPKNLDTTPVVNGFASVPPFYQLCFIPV
# In short: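 P450-Glo CYP2C9 system: proluciferin substrate with enzyme in mix containing 0.4% BSA, 10 min at room temperature, then NADPH regeneration solution added and incubated 1 h at 37C. Detection reagent stopped reaction; luminescence read after 20 min as RLU.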
# [9] = Primary qHTS for inhibitors of nuclear receptor binding SET domain protein 2 (NSD2) in an RCH-ACV wild type WT cells (2C) (AID 1645877); conditions: activity change, negative = cell killing: at 44.9 µM (top of the series) unless noted; further: nearly all actives have a fitted effect of over 70% in size
# Potency means the concentration at half of the fitted maximal effect; tags describe the fitted curve by direction and shape.
smiles,measurement,setting,value
CN1CCC(Nc2ncc3ncnc(Nc4ccc(F)c(Cl)c4)c3n2)CC1,Potency,[1],"inconclusive: 8.91 µM [inhibitor, partial curve]"
same,Potency,[2],"inconclusive: 28.2 µM [cytotoxic, single point] and inconclusive: 25.1 µM [cytotoxic, partial curve]"
same,Potency,[3],"inconclusive: 6.31 µM [inhibitor, partial curve, poor fit] and inconclusive: 10 µM [inhibitor, partial curve, poor fit]"
same,Potency,[4],"inconclusive: 14.1 µM [inhibitor, partial curve, poor fit]"
same,Potency,[5],"inconclusive: 29.1 µM [inhibitor, single point]"
COc1ccc(-c2ccc3c(N4CCOCC4)nc(N4C[C@@H](C)O[C@@H](C)C4)nc3n2)cc1CO,Potency,[1],"inconclusive: 31.6 µM [inhibitor, single point]"
same,max response,[2],inactive: -27.3%
same,Potency,[3],active: 14.9 µM
O=C1Nc2ccc(I)cc2C1=Cc1cc(Br)c(O)c(Br)c1,Potency,[3],"inconclusive: 6.68 µM [inhibitor, partial curve]"
COC1=C(OC)C(=O)C(CC=C(C)CCC=C(C)CCC=C(C)CCC=C(C)CCC=C(C)CCC=C(C)CCC=C(C)CCC=C(C)CCC=C(C)CCC=C(C)C)=C(C)C1=O,Potency,[3],"inconclusive: 0.0749 µM [inhibitor, full curve, poor fit]"
NC(=O)c1ncn([C@@H]2O[C@H](CO)[C@@H](O)[C@@H]2O)n1,Potency,[3],inactive
CCCCOc1cc(C(=O)NCCN(CC)CC)c2ccccc2n1,Potency,[3],"inconclusive: 22.4 µM [inhibitor, single point]"
same,Potency,[4],"inconclusive: 35.5 µM [inhibitor, single point]"
same,Potency,[6],active: 8.71 µM
same,Potency,[5],"inconclusive: 29.9 µM [inhibitor, single point]"
CC(=O)Oc1ccc(C2(c3ccc(OC(C)=O)cc3)C(=O)Nc3ccccc32)cc1,Potency,[3],"inconclusive: 31.6 µM [inhibitor, partial curve, poor fit]"
Cc1ccc(NC(=O)Nc2cc(C(F)(F)F)ccc2F)cc1Nc1ccc2c(c1)NC(=O)C2=Cc1ccc[nH]1,Potency,[3],"inconclusive: 29.8 µM [inhibitor, single point]"
C[C@H]1[C@H](O)O[C@@H]2O[C@@]3(C)CC[C@@H]4[C@H](C)CC[C@@H]1[C@@]24OO3,Potency,[3],inactive
CCCN(CCC)CCc1cccc2c1CC(=O)N2,Potency,[3],"inconclusive: 1 µM [inhibitor, full curve, poor fit]"
OC[C@H]1O[C@@H](O[C@H]2[C@@H](O)[C@@](O)(CO)O[C@@H]2CO)[C@H](O)[C@@H](O)[C@@H]1O,Potency,[3],"inconclusive: 0.0024 µM [inhibitor, full curve, poor fit]"
O=C1NS(=O)(=O)c2ccccc21,Potency,[3],inactive
O=C(Nc1cccc(C(F)(F)F)c1)Nc1cc(S(=O)(=O)NC2CC2)ccc1-c1ccsc1,Potency,[3],inactive
C=C1[C@H](n2cnc3c(=O)[nH]c(N)nc32)C[C@H](O)[C@H]1CO,Potency,[3],"inconclusive: 2.11 µM [inhibitor, full curve]"
COc1c(C)c2c(c(O)c1C/C=C(\C)CCC(=O)O)C(=O)OC2,Potency,[3],"inconclusive: 2 µM [inhibitor, full curve, poor fit]"
CN(C)CCOc1ccccc1Cc1ccccc1,Potency,[3],"inconclusive: 31.6 µM [inhibitor, single point]"
same,Potency,[4],inactive
CC1(C)O[C@@H]2C[C@@H]3[C@H]4C[C@@H](F)C5=CC(=O)C=C[C@]5(C)[C@@]4(F)[C@@H](O)C[C@]3(C)[C@]2(C(=O)CO)O1,Potency,[3],inactive
O=C1N=C(O)CN1/N=C/c1ccc(-c2ccc([N+](=O)[O-])cc2)o1,Potency,[3],"active: 14.1 µM and inconclusive: 3.16 µM [inhibitor, partial curve, poor fit]"
NC(=O)Nc1cc(-c2ccc(CN3CCOCC3)cc2)sc1C(N)=O,Potency,[3],inactive
COc1ccc2cc([S+]([O-])Cc3ncc(C)c(OC)c3C)nc2c1,Potency,[3],"inconclusive: 31.6 µM [inhibitor, single point]"
NC(CS)C(=O)O (centres undefined),Potency,[3],"inconclusive: 31.6 µM [inhibitor, partial curve, poor fit]"
same,Potency,[4],inactive
same,Potency,[6],inactive
same,Potency,[7],"inconclusive: 9.77 µM [falling, partial curve]"
same,Potency,[8],inactive
same,Potency,[9],inactive
CN(C)CCN(C)C(=O)c1ccc(NC(=O)Nc2ccc(-c3nc(N4CCOCC4)c4ccn(CC(F)(F)F)c4n3)cc2)cc1,Potency,[3],inactive
C#CCC(Cc1cnc2nc(N)nc(N)c2n1)c1ccc(C(=O)N[C@@H](CCC(=O)O)C(=O)O)cc1 (some centres undefined),Potency,[3],inactive
COc1ccc(CCN2CCC(Nc3nc4ccccc4n3Cc3ccc(F)cc3)CC2)cc1,Potency,[3],inactive
same,Potency,[4],"inconclusive: 14.1 µM [inhibitor, partial curve, poor fit]"
same,Potency,[6],active: 6.17 µM
same,Potency,[9],active: 5.31 µM
N#Cc1c(O)c2c(-c3ccc(-c4ccccc4O)cc3)csc2[nH]c1=O,Potency,[3],"inconclusive: 0.0119 µM [inhibitor, full curve, poor fit]"
CC1(CN2CCC(n3c(=O)[nH]c4ccccc43)CC2)OCc2ccccc2-n2cccc21 (centres undefined),Potency,[3],"inconclusive: 28.2 µM [inhibitor, single point] and inconclusive: 22.4 µM [inhibitor, single point]"
same,Potency,[4],"inconclusive: 35.5 µM [inhibitor, single point]"
same,Potency,[6],active: 1.38 µM
same,Potency,[5],"inconclusive: 21.1 µM [inhibitor, single point] and inconclusive: 29.1 µM [inhibitor, single point] and inconclusive: 26.3 µM [inhibitor, single point]"
same,Potency,[9],"inconclusive: 21.1 µM [inhibitor, single point] and inconclusive: 20.6 µM [inhibitor, single point] and inconclusive: 37.2 µM [inhibitor, single point]"
COc1ccnc2[nH]cc(C(=O)C(=O)N3CCN(C(=O)c4ccccc4)C[C@@H]3C)c12,Potency,[3],"inconclusive: 0.15 µM [inhibitor, full curve]"
NC(=O)n1c(O)c(C(=O)c2cccs2)c2cc(Cl)ccc21,Potency,[3],inactive
same,Potency,[4],"inconclusive: 17.8 µM [inhibitor, single point]"
same,Potency,[6],"inconclusive: 30.9 µM [inhibitor, single point]"
same,Potency,[8],"inconclusive: 38.9 µM [inhibitor, single point]"
O=C(Nc1ccc(Cl)cc1)Nc1ccc(Cl)c(Cl)c1,Potency,[3],inactive
same,Potency,[4],"inconclusive: 12.6 µM [inhibitor, partial curve]"
Cc1cnc(Nc2ccc(F)cc2Cl)nc1-c1c[nH]c(C(=O)N[C@H](CO)c2cccc(Cl)c2)c1,Potency,[3],inactive
CC(=O)OCC(=O)[C@@]12OC(C)(C)O[C@@H]1C[C@H]1[C@@H]3C[C@H](F)C4=CC(=O)C=C[C@]4(C)[C@@]3(F)[C@@H](O)C[C@@]12C,Potency,[3],inactive
C[C@@H](O)[C@H]1C(=O)N2C(C(=O)O)=C([C@H]3CCCO3)S[C@H]12,Potency,[3],"inconclusive: 31.6 µM [inhibitor, partial curve]"
NS(=O)(=O)Cc1noc2ccccc12,Potency,[3],"inconclusive: 22.4 µM [inhibitor, partial curve, poor fit]"
same,Potency,[4],inactive
same,Potency,[6],inactive
same,Potency,[7],inactive
same,Potency,[5],"inconclusive: 29.9 µM [inhibitor, partial curve, poor fit]"
CC1C(=O)OC2C(O)C34C5CC(C(C)(C)C)C36C(OC(=O)C6O)OC4(C(=O)O5)C12O (centres undefined),Potency,[3],"inconclusive: 3.16 µM [inhibitor, full curve, poor fit]"
CC1CCc2c(N3CCC(O)CC3)c(F)cc3c(=O)c(C(=O)O)cn1c23 (centres undefined),Potency,[3],"inconclusive: 11.2 µM [inhibitor, partial curve, poor fit]"
C[C@H](O)C(=O)Nc1c(I)c(C(=O)NC(CO)CO)c(I)c(C(=O)NC(CO)CO)c1I,Potency,[3],"inconclusive: 2.24 µM [inhibitor, full curve, poor fit]"
same,Potency,[4],inactive
same,Potency,[6],inactive
same,Potency,[8],inactive
NS(=O)(=O)OC[C@@H]1C[C@@H](n2ccc3c(N[C@H]4CCc5ccccc54)ncnc32)C[C@H]1O,Potency,[3],inconclusive: 0.0008 µM [inhibitor]
NC[C@H]1O[C@H](O[C@H]2[C@@H](O)[C@@H](O[C@H]3O[C@H](CO)[C@@H](O)[C@H](N)[C@@H]3O)[C@H](N)C[C@@H]2N)[C@H](N)C[C@H]1O,Potency,[3],inactive
CO[C@@H]1[C@@H](O)[C@H](O)[C@@H](n2c3c(Cl)cccc3c3c4c(c5c6cccc(Cl)c6[nH]c5c32)C(=O)NC4=O)O[C@@H]1CO,Potency,[3],inactive
C[C@]12C=CC(=O)N[C@@H]1CC[C@H]1[C@H]3CC[C@@H](C(=O)Nc4cc(C(F)(F)F)ccc4C(F)(F)F)[C@@]3(C)CC[C@@H]12,Potency,[3],inactive
OCCN1C[C@H](O)[C@@H](O)[C@H](O)[C@@H]1CO,Potency,[3],"inconclusive: 9.43 µM [inhibitor, single point]"
CCCCCCCCNC(C)C(O)c1ccc(SC(C)C)cc1 (centres undefined),Potency,[3],inactive
same,Potency,[8],"inconclusive: 24.5 µM [inhibitor, single point]"
CC(C)C[C@H](NC(=O)CNC(=O)c1cc(Cl)ccc1Cl)B1OC(=O)CC(CC(=O)O)(C(=O)O)O1 (some centres undefined),Potency,[3],inactive
same,Potency,[6],"inconclusive: 21.3 µM [inhibitor, partial curve]"
same,Potency,[7],"inconclusive: 26.8 µM [falling, single point]"
same,Potency,[8],inactive
same,Potency,[9],active: 0.118 µM
Oc1c(I)cc(I)c2cccnc12,Potency,[3],inactive
same,Potency,[4],"inconclusive: 6.31 µM [inhibitor, full curve, poor fit]"
same,Potency,[8],inactive
